# Target: dopamine D2 receptor (Homo sapiens, UniProt P14416)
# Assay: biochemical
# Details: D2 Ki (nM), Table 1; 0.4 nM [3H]spiperone, CHO-hD2L membranes
# Chain of UniProt P14416 (P14416 whole entry): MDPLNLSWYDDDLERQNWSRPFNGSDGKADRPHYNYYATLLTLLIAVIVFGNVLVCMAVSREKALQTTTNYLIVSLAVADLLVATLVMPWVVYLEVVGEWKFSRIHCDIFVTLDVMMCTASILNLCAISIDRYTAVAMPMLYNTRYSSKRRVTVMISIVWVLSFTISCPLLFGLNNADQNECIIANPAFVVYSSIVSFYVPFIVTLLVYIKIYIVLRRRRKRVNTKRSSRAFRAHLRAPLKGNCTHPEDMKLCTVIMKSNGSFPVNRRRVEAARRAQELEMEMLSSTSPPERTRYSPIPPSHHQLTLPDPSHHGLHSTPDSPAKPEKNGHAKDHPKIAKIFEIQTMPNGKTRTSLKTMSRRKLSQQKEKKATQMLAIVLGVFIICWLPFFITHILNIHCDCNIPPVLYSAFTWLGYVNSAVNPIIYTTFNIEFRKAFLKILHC
row,SMILES,Ki [nM]
1,"Cc1nc(OCCCCN2CCN(c3cccc(C(C)C)n3)CC2)nc2[nH]c(=O)ccc12 [Example H6, 2-{4-[4-(6-Isopropyl-pyridin-2-yl)-piperazin-1-yl]-butoxy}-4-methyl-8H-pyrido[2,3-d]pyrimidin-7-one]",1
2,"O=c1ccc2cnc(OCCCCN3CCN(c4cccc5c4CCC5)CC3)nc2[nH]1 [Example H3, 2-[4-(4-Indan-4-yl-piperazin-1-yl)-butoxy]-8H-pyrido[2,3-d]pyrimidin-7-one]",1.8
3,"O=C1Cc2cccc(N3CCN(CCCCOc4ccc5c(n4)NC(=O)CC5)CC3)c2C1 [Example A61, 7-{4-[4-(2-Oxo-indan-4-yl)-piperazin-1-yl]-butoxy}-3,4-dihydro-1H-[1,8]naphthyridin-2-one]",2.2
4,"O=C1CCc2ccc(OCCCCN3CCN(c4cccc5c4CC(F)(F)C5)CC3)nc2N1 [Example A62, 7-{4-[4-(2,2-Difluoro-indan-4-yl)-piperazin-1-yl]-butoxy}-3,4-dihydro-1H-[1,8]naphthyridin-2-one]",0.9
5,"CC1CC(=O)Nc2nc(OCCCCN3CCN(c4cccc(Cl)c4Cl)CC3)ccc21 (single isomer, unassigned) [Example D2b, 7-{4-[4-(2,3-Dichloro-phenyl)-piperazin-1-yl]-butoxy}-4-methyl-3,4-dihydro-1H-[1,8]naphthyridin-2-one]",2
6,"O=C1NCc2ccc(OCCCCN3CCN(c4cccc(Cl)c4Cl)CC3)nc2N1 [Example F1, 7-{4-[4-(2,3-Dichloro-phenyl)-piperazin-1-yl]-butoxy}-3,4-dihydro-1H-pyrido[2,3-d]pyrimidin-2-one]",0.6
7,"Cc1c(F)ccc(N2CCN(CCCCOc3ccc4c(n3)NC(=O)CC4)CC2)c1Cl [Example A15, 7-{4-[4-(2-Chloro-4-fluoro-3-methyl-phenyl)-piperazin-1-yl]-butoxy}-3,4-dihydro-1H-[1,8]naphthyridin-2-one]",4.5
8,"O=c1ccc2ccc(OCCCCN3CCN(c4ccccc4C(F)(F)F)CC3)nc2[nH]1 [Example B16, 7-{4-[4-(2-Trifluoromethyl-phenyl)-piperazin-1-yl]-butoxy}-1H-[1,8]naphthyridin-2-one]",2.5
9,"O=C1COc2ccc(CCCCCN3CCN(c4cccc5c4CCCC5)CC3)nc2N1 [Example G2, 6-{5-[4-(5,6,7,8-Tetrahydro-naphthalen-1-yl)-piperazin-1-yl]-pentyl}-4H-pyrido[3,2-b][1,4]oxazin-3-one]",3.9
10,"CC(=O)c1ccc2c(N3CCN(CCCCOc4ccc5c(n4)NC(=O)CC5)CC3)cccc2c1 [Example A79, 7-{4-[4-(6-Acetyl-napthalen-1-yl)-piperazin-1-yl]-butoxy}-3,4-dihydro-1H-[1,8]naphthyridin-2-one]",15
11,"Cc1nc(OCCCCN2CCN(c3cccc4ccccc34)CC2)nc2[nH]c(=O)c(F)cc12 [Example H5, 6-Fluoro-4-methyl-2-[4-(4-naphthalen-1-yl-piperazin-1-yl)-butoxy]-8H-pyrido[2,3-d]pyrimidin-7-one]",3
12,"Cc1cc(C)nc(N2CCN(CCCCCc3ccc4c(n3)NC(=O)CC4)CC2)c1 [Example C19, 7-{5-[4-(4,6-Dimethyl-pyridin-2-yl)-piperazin-1-yl]-pentyl}-3,4-dihydro-1H-[1,8]naphthyridin-2-one]",10.4
13,"COc1ccc2cccc(N3CCN(CCCCOc4ccc5c(n4)NC(=O)CC5)CC3)c2c1 [Example A73, 7-{4-[4-(7-Methoxy-naphthalen-1-yl)-piperazin-1-yl]-butoxy}-3,4-dihydro-1H-[1,8]naphthyridin-2-one]",1
14,"CN1Cc2ccc(OCCCCN3CCN(c4cccc5ccccc45)CC3)nc2NC1=O [Example F8, 3-Methyl-7-[4-(4-naphthalen-1-yl-piperazin-1-yl)-butoxy]-3,4-dihydro-1H-pyrido[2,3-d]pyrimidin-2-one]",1
15,"CC(C)Oc1ccccc1N1CCN(CCCCOc2ccc3ccc(=O)[nH]c3n2)CC1 [Example B10, 7-{4-[4-(2-Isopropoxy-phenyl)-piperazin-1-yl]-butoxy}-1H-[1,8]naphthyridin-2-one]",1.2
16,"Cc1cc(OCCCCN2CCN(c3cccc4c3CCC4)CC2)nc2c1CCC(=O)N2 [Example E12, 7-[4-(4-Indan-4-yl-piperazin-1-yl)-butoxy]-5-methyl-3,4-dihydro-1H-[1,8]naphthyridin-2-one]",1
17,"O=C1CCc2ccc(OCCCCN3CCN(c4cccc5c4CC(F)(F)CC5)CC3)nc2N1 [Example A55, 7-{4-[4-(7,7-Difluoro-5,6,7,8-tetrahydro-naphthalen-1-yl)-piperazin-1-yl]-butoxy}-3,4-dihydro-1H-[1,8]naphthyridin-2-one]",0.2
18,"CC(=O)c1ccc2ccccc2c1N1CCN(CCCCOc2ccc3ccc(=O)[nH]c3n2)CC1 [Example B66, 7-{4-[4-(2-Acetyl-naphthalen-1-yl)-piperazin-1-yl]-butoxy}-1H-[1,8]naphthyridin-2-one]",29.2
19,"O=c1ccc2ccc(OCCCCN3CCN(c4cccc(Cl)c4F)CC3)nc2[nH]1 [Example B22, 7-{4-[4-(3-Chloro-2-fluoro-phenyl)-piperazin-1-yl]-butoxy}-1H-[1,8]naphthyridin-2-one]",1
20,"CC1Cc2ccc(OCCCCN3CCN(c4cccc(Cl)c4Cl)CC3)nc2NC1=O (single isomer, unassigned) [Example D6a, 7-{4-[4-(2,3-Dichloro-phenyl)-piperazin-1-yl]-butoxy}-3-methyl-3,4-dihydro-1H-[1,8]naphthyridin-2-one]",2.5
21,"O=c1ccc2ccc(OCCCCN3CCN(c4cccc5c4CCCC5(F)F)CC3)nc2[nH]1 [Example B43, 7-{4-[4-(5,5-Difluoro-5 6,7,8-tetrahydro-naphthalen-1-yl)-piperazin-1-yl]-butoxy}-1H-[1,8]naphthyridin-2-one]",3
22,"O=c1ccc2ccc(OCCN3CCN(c4cccc(Cl)c4Cl)CC3)nc2[nH]1 [Example C4, 7-{2-[4-(2,3-Dichloro-phenyl)-piperazin-1-yl]-ethoxy}-1H-[1,8]naphthyridin-2-one]",54.1
23,"O=C1CCc2ccc(OCCCCN3CCN(c4ccccc4C(F)(F)F)CC3)nc2N1 [Example A37, 7-{4-[4-(2-Trifluoromethyl-phenyl)-piperazin-1-yl]-butoxy}-3,4-dihydro-1H-[1,8]naphthyridin-2-one]",2.2
24,"Cc1c(C)c2ccc(OCCCCN3CCN(c4cccc(Cl)c4Cl)CC3)nc2[nH]c1=O [Example D7, 7-{4-[4-(2,3-Dichloro-phenyl)-piperazin-1-yl]-butoxy}-3,4-dimethyl-1H-[1,8]naphthyridin-2-one]",3

# Same assay, conditions: D2 Ki (nM), Table 2; 0.4 nM [3H]spiperone, CHO-hD2L membranes
row,SMILES,Ki [nM]
1,"O=c1ccc2cnc(OCCCCN3CCN(c4cccc5c4OCCCO5)CC3)nc2[nH]1 [Example G5′, 2-{4-[4-(3,4-Dihydro-2H-benzo[b][1,4]dioxepin-6-yl)-piperazin-1-yl]-butoxy}-8H-pyrido[2,3-d]pyrimidin-7-one]",8.5
2,"O=C1CCc2ccc(OCCCCN3CCN(c4cccc5c4OCC5)CC3)nc2N1 [Example A2′, 7-{4-[4-(2,3-Dihydro-benzofuran-7-yl)-piperazin-1-yl]-butoxy}-3,4-dihydro-1H-[1,8]naphthyridin-2-one]",1.4
3,"O=C1CCOc2c1cccc2N1CCN(CCCCOc2ccc3ccc(=O)[nH]c3n2)CC1 [Example B15′, 7-{4-[4-(4-Oxo-chroman-8-yl)-piperazin-1-yl]-butoxy}-1H-[1,8]naphthyridin-2-one]",9.4
4,"O=c1ccc2ccc(OCCCCN3CCN(c4cccc5nonc45)CC3)nc2[nH]1 [Example B39′, 7-[4-(4-Benzo[1,2,5]oxadiazol-4-yl-piperazin-1-yl)-butoxy]-1H-[1,8]naphthyridin-2-one]",5.7
5,"Cc1nc(OCCCCN2CCN(c3cccc4cccnc34)CC2)nc2[nH]c(=O)ccc12 [Example G15′, 4-Methyl-2-[4-(4-quinolin-8-yl-piperazin-1-yl)-butoxy]-8H-pyrido[2,3-d]pyrimidin-7-one]",3.4
6,"O=C1COc2ccc(OCCCCN3CCN(c4cccc5c4OCCO5)CC3)nc2N1 [Example F5′, 6-{4-[4-(2,3-Dihydro-benzo[1,4]dioxin-5-yl)-piperazin-1-yl]-butoxy}-4H-pyrido[3,2-b][1,4]oxazin-3-one]",0.8
7,"O=c1ccc2ccc(OCCCCN3CCN(c4cccc5c4OC4(CCCC4)CC5)CC3)nc2[nH]1 [Example B7′, 7-{4-[4-(3,4-Dihydrospiro[chromene-2,1′-cyclopentan]-8-yl)-piperazin-1-yl]-butoxy}-1H-[1,8]naphthyridin-2-one]",1
8,"CNc1ccc2cccc(N3CCN(CCCCOc4ccc5c(n4)NC(=O)CC5)CC3)c2n1 [Example A46′, 7-{4-[4-(2-Methylamino-quinolin-8-yl)-piperazin-1-yl]-butoxy}-3,4-dihydro-1H-[1,8]naphthyridin-2-one]",3.2
9,"O=c1ccc2cnc(OCCCCN3CCN(c4cccc5c4OCCC5)CC3)nc2[nH]1 [Example G2′, 2-[4-(4-Chroman-8-yl-piperazin-1-yl)-butoxy]-8H-pyrido[2,3-d]pyrimidin-7-one]",3.5
10,"O=C1CCc2ccc(OCCCCN3CCN(c4cccc5cc[nH]c45)CC3)nc2N1 [Example A24′, 7-{4-[4-(1H-Indol-7-yl)-piperazin-1-yl]-butoxy}-3,4-dihydro-1H-[1,8]naphthyridin-2-one]",2
11,"O=C1CCc2ccc(OCCCCN3CCN(c4cccc5c4CCO5)CC3)nc2N1 [Example A11′, 7-{4-[4-(2,3-Dihydro-benzofuran-4-yl)-piperazin-1-yl]-butoxy}-3,4-dihydro-1H-[1,8]naphthyridin-2-one]",3
12,"O=C1CCc2cnc(OCCCCN3CCN(c4cccc5c4OCC5)CC3)cc2N1 [Example H2′, 7-{4-[4-(2,3-Dihydro-benzofuran-7-yl)-piperazin-1-yl]-butoxy}-3,4-dihydro-1H-[1,6]naphthyridin-2-one]",6.9
13,"Cc1ccc2cccc(N3CCN(CCCCOc4ccc5c(n4)NC(=O)CC5)CC3)c2n1 [Example A40′, 7-{4-[4-(2-Methyl-quinolin-8-yl)-piperazin-1-yl]-butoxy}-3,4-dihydro-1H-[1,8]naphthyridin-2-one]",1

# — US7160888B2, “[1,8]naphthyridin-2-ones and related compounds for the treatment of schizophrenia” (Warner Lambert Company LLC, priority 2003, dated 2007)
